Reference: publication PMC4336329 (PLoS ONE, 2015)
Hit rate of the full screen: of about 310,000 compounds, about 14,000 (4.5%) showed an effect of 50% or more. The effect is printed as a negative number. The list shows a part of the results.

Biological target: human ether-à-go-go-related gene (hERG) potassium channel (human, UniProt Q12809)
Assay: primary screen, population patch clamp on CHO cells stably expressing hERG
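Also: peak tail current of the secondary pulse compared with the same well before compound.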

human ether-à-go-go-related gene (hERG) potassium channel, sequence (Q12809 whole entry, looked up): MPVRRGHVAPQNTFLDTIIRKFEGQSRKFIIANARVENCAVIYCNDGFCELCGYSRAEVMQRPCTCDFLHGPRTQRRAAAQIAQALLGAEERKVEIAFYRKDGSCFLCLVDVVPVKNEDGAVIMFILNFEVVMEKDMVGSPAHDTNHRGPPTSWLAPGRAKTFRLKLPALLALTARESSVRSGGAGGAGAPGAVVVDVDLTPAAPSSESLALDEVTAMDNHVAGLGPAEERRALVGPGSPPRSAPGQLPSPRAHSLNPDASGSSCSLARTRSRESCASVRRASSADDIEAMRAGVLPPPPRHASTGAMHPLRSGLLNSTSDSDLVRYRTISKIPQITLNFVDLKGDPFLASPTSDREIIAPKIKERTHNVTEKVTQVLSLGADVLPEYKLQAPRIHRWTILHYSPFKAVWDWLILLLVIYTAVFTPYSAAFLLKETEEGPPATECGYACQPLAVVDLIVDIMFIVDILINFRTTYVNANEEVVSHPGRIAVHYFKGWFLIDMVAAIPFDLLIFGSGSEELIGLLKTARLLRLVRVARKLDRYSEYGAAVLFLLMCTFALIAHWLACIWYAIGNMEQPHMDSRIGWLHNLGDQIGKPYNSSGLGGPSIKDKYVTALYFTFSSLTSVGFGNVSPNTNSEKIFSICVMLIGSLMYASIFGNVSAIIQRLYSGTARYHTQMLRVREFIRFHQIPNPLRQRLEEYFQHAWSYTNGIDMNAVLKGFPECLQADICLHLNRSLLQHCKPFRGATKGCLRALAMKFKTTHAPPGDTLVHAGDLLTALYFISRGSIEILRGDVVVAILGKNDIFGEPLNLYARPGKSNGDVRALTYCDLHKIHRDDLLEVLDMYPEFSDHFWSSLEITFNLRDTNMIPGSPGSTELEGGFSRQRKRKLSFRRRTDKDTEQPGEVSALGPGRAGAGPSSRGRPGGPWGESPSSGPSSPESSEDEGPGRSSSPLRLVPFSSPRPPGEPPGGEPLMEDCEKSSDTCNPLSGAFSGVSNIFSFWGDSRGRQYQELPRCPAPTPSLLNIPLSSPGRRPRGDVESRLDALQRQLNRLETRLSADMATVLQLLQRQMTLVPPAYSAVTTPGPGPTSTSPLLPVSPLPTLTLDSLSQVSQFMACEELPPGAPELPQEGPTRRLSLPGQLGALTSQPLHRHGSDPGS

Structure (SMILES) | hERG current change (%, negative = inhibition) at 10uM
CC1Cc2ccccc2N1C(=O)CN1C(=O)NC(C)(CCc2ccccc2)C1=O (stereo not drawn) | -7.9%
Cc1ccc(C(=O)NC2=NCCS2)cc1Cl | 8.26%
CCc1cccc(C)c1NC(=O)c1ccccc1 | 5.93%
COCC(C)NC(=O)C1c2ccccc2Oc2ccccc21 (stereo not drawn) | 16%
COc1ccc(OCC(O)CN(C2CCCCC2)C2CCCCC2)cc1.Cl (stereo not drawn) | -59.5%
COc1ccc(C(=O)CCC(C)(C)[N+](=O)[O-])cc1OC | 4.96%
COC(=O)CN(c1nc(C)c(Cl)c(OC)n1)S(=O)(=O)c1ccc(C)cc1 | -11.8%
O=C(Nc1ccccc1-c1nnc(SCc2ccc(Cl)cc2Cl)o1)c1ccccc1 | 2.32%
O=C(Nc1ccc(Cl)cn1)c1cc2ccccc2o1 | 16.2%
CCc1ccc(C(=O)COc2ccc(NC(C)=O)cc2)cc1 | -22.8%
Cc1ccccc1NC(=S)NC(NC(=O)c1ccccc1C)C(Cl)(Cl)Cl (stereo not drawn) | 16.9%
CCOc1ccccc1N(CC(=O)Nc1ccccc1C(=O)NCc1ccco1)S(C)(=O)=O | -26.9%
Cc1nn2c(NCCN3CCOCC3)c3c(nc2c1-c1ccccc1)CCCC3 | -76.5%
Cc1ccc(NC(=S)NCCN2CCOCC2)cc1 | -10.2%
Cc1ccc(NC(=O)NCC(c2cccnc2)N2CCOCC2)cc1 (stereo not drawn) | 10.2%
Clc1ccc(OCc2nn3c(C4CCCCC4)nnc3s2)c(Cl)c1 | 5.95%
O=C(Cc1ccccc1)Nc1cc2c(cc1Cl)OCCCO2 | 9.61%
Cc1cccc2cc3ccccc3nc12 | 4.66%
CN(C)C=Nc1c(C(=O)c2ccccc2)sc2nccc(N(C)C)c12 | -27.6%
CN(Cc1ccccc1)C(=O)COC(=O)c1ccc(S(=O)(=O)N(C)C)cc1 | -2.9%
C=CCN(c1ccccc1)S(=O)(=O)c1ccc(Cl)c(C(=O)OCC(=O)N(C)C2CCS(=O)(=O)C2)c1 (stereo not drawn) | -15.7%
COc1ccc(N=Cc2cc(Cc3ccccc3Cl)cc([N+](=O)[O-])c2O)cc1OC | 13.7%

Structure (SMILES) | hERG current change (%, negative = inhibition) at 10uM
O=C(NC1=NCCS1)c1ccncc1 | -10.4%
COc1ccc2oc(C(=O)OCC(=O)N(Cc3ccccc3)C(C)C)c(C)c2c1 | 8.59%
CCc1ccc(NC(=O)CSc2nc(=O)n(CCCN(C)C)c3c2CCC3)cc1 | -42.3%
COc1cc(NC(=O)C2CCN(S(=O)(=O)c3ccc(Cl)cc3)CC2)ccc1-n1cnnn1 | 9.28%
O=C(NCCS(=O)(=O)N1CCN(Cc2ccccc2)CC1)c1ccccc1 | -17.1%
O=C(CCc1nnc2ccc(N3CCOCC3)nn12)Nc1ccc(F)cc1F | -15.8%
COc1ccc(C(=O)N(C)C2(C)CCS(=O)(=O)C2)cc1OC (stereo not drawn) | -5.65%
COc1cccc2c(=O)n(CC(=O)Nc3cccc(F)c3)ccc12 | 14%
Cc1nn(C(=O)c2nn(C)cc2[N+](=O)[O-])c(C)c1Cl | 21.9%
COc1ccc(NC(=O)CN(C)C(=O)/C=C/c2cn(-c3ccccc3)nc2-c2ccc(F)cc2)cc1 | -2.48%
COc1ccc(NS(=O)(=O)c2cccc(C(=O)NNC(=O)c3ccc(=O)[nH]c3)c2)cc1 | -22%
CCNC(=O)Cn1c(=O)c(=O)n(Cc2ccccc2)c2ccc(Cl)cc21 | -19.9%
O=C(NCc1ccc2c(c1)OCO2)c1cccc(S(=O)(=O)N2CCCCC2)c1 | -20.3%
Cc1cccc(N2CCN(C(=O)c3cc4c(=O)n(C)c5ccccc5c4n3C)CC2)c1C | 0.656%
COc1ccc(-c2cc(C)no2)cc1S(=O)(=O)NCCCN1CCCCCC1 | -17.4%
COc1ccc(C2CCCN2C(=O)Nc2cccc(C(C)=O)c2)cc1OC (stereo not drawn) | -9.9%
C=CCCC1(C)C(=O)N(c2ccccc2)c2ccccc21 (stereo not drawn) | -3.56%
COc1cccc(N2CCN(C(=O)c3ccc(CS(=O)c4ccc(Cl)cc4)o3)CC2)c1 (stereo not drawn) | -42%
C=CCc1ccc(OCCCCOc2ccc(C(=O)O)cc2)c(OC)c1 | 14%
COc1ccc(OC)c(/C=C2\SC(=S)N(Cc3cccnc3)C2=O)c1 | 12.4%
O=C(Oc1c(Cl)cc(Cl)c2cccnc12)N1CCCCC1 | 0.957%
O=C(NCCO)N1c2ccccc2Sc2ccccc21 | 5.99%

Structure (SMILES) | hERG current change (%, negative = inhibition) at 10uM
COC(=O)CCCC1=CC2=C(c3ccccc3)C(=O)C(C)(OC(=O)C3CCCC3)C(=O)C2=CN1Cc1ccc(OC)cc1 (stereo not drawn) | -4.26%
Cc1ccc2c(c1)N(CC(=O)N1CCCCCC1)C(=O)C(C)O2 (stereo not drawn) | -1.06%
O=C1NC(=S)N/C1=C/C=C/c1ccccc1 | -10.6%
Cc1noc(C)c1S(=O)(=O)NC1CCCc2ccccc21 (stereo not drawn) | 1.65%
O=c1cc(Cl)c(-c2ccccc2)nn1Cc1ccc(Cl)cc1 | -5.84%
O=C(NC(=S)N1CCCCC1)c1cccs1 | 9.19%
COc1ccc(-c2noc(CCC(=O)NC3CCCCC3)n2)cc1 | 7.7%
CCCc1cc(=O)oc2c(C)c(OC(C)C(=O)NCCN3CCOCC3)ccc12 (stereo not drawn) | -32.1%
O=C(Cc1cn(Cc2cccc(Cl)c2)c2ccccc12)N1CCCC1 | -50%
O=C(COc1ccc2c(-c3ccccc3)cc(=O)oc2c1)NCC(O)c1ccccc1 (stereo not drawn) | -2.44%
Cc1cccc(OCC(=O)NCCCNC(=O)c2cnccn2)c1 | -4.97%
CCNC(=O)NC(=O)CSc1ccc2ccccc2c1 | 24.3%
Cc1sc2nc3c(C(=O)N4CCCC4)cc(C(=O)c4ccccc4O)cn3c(=O)c2c1C | -30.9%
O=C(NCc1cc(C(F)(F)F)cc(C(F)(F)F)c1)C1CC(c2cccc([N+](=O)[O-])c2)=NO1 (stereo not drawn) | 11.8%
Cc1ccc(CN2CCc3c(OCC(=O)Nc4cc(C)ccc4C)cccc3C2=O)cc1 | 4.23%
Cc1cccc(NC(=O)c2nc[nH]c2C(=O)N[C@@H](C)C(=O)OC(C)(C)C)c1 | 16.4%
COCCN=C1Sc2nc3c(C)cccc3cc2CN1Cc1ccco1 | 8.49%
COc1ccc(-c2nnn(Cc3ccccc3)n2)cc1 | 8.24%
COc1ccc(S(=O)(=O)Nc2ccc(NC(C)=O)cc2)cc1Br | -12.1%
COC(=O)CCC/C=C1/SCC(NC(=O)c2ccccc2)C1O (stereo not drawn) | 1.49%
Nc1nnnn1/N=C/c1ccccc1C(F)(F)F | -9.86%
CCC(C)c1ccccc1N1CC(C(=O)Nc2ccc(C)c(S(=O)(=O)N3CCOCC3)c2)CC1=O (stereo not drawn) | -6.77%

Structure (SMILES) | hERG current change (%, negative = inhibition) at 10uM
O=C(CNc1cccc2ccccc12)N/N=C/c1ccc([N+](=O)[O-])o1 | -13.3%
Cc1cc(C)cc(N(C(=O)c2csnn2)C(C(=O)NC2CCCC2)c2ccccn2)c1 (stereo not drawn) | 6.89%
CN(C)Cc1ccccc1Sc1ccc(O)cc1O.O.O=C(O)/C=C\C(=O)O | -3.84%
COCC(C)NS(=O)(=O)c1ccc(OC)cc1 (stereo not drawn) | 8.55%
CC1CCN(c2nc3c(c(=O)n(C)c(=O)n3C)n2CCSc2nc3ccccc3s2)CC1 | -5.51%
CCCc1nc2oc(C(=O)c3ccccc3)c(N)c2c2c1COC(C)(C)C2 | -38%
O=C(Nc1nccs1)c1cc(-c2ccccc2)nn1-c1ccccc1 | 1.92%
O=C(CSc1nc(-c2ccco2)cc(C(F)(F)F)n1)Nc1cccnc1 | 34.1%
COc1ccc(CCNC(=O)CC2SC(=NCCc3ccccc3)NC2=O)cc1 (stereo not drawn) | -6.72%
C/C(N)=C(/C#N)C(=O)COC(=O)c1ccncc1 | 2.13%
CC12CCC(=O)N1C(C(=O)N1CCN(c3ccccc3)CC1)CS2 (stereo not drawn) | -22.7%
O=C(Nc1ccc2ccccc2c1)/C(=C\c1ccc2c(c1)OCO2)NC(=O)c1ccco1 | -13%
CCOC(=O)C1CCCN(C(=O)CC(c2ccccc2)c2ccccc2)C1 (stereo not drawn) | -21.3%
O=C(CCc1ccccc1)NCc1ccccn1 | -9.56%
COc1ccc(C(=O)NNC(=O)CSc2nnc(-c3cccnc3)o2)cc1 | 19%
COc1ccc(Br)cc1-c1nc(CCl)cs1.Cl | 6.83%
COc1ccc(NC(=S)N2CCN(S(=O)(=O)c3ccc(OC)cc3)CC2)cc1 | -10.2%
CCN(CC(=O)Nc1ccc(NC(C)=O)cc1)C(=O)c1cc(S(=O)(=O)N2CCCCCC2)ccc1OC | -6.8%
CC(=O)c1cc(C)ccc1OC(=O)c1cccc2nc(C)oc12 | 14.4%
C=CCn1c(NCc2ccc(N(C)C)cc2)nc2ccccc21 | -11.3%
CCOc1ccc(OCC)c(S(=O)(=O)N2CCCCC2)c1 | -12.2%
